Experimental data reported in the supplement of paper PMC10369915.
The other results are listed elsewhere or left out. Rule as the data show it: active = 3.2 or more and inactive = the rest. Most of these values are background signal.

The binders below were run against SHP2 C-SH2 domain E139D (assay: enrichment score (SH2-bound / input frequency) (ratio); bacterial display of known human phosphotyrosine sites (pTyr-Var adds point mutants) read by sequencing; higher = stronger binding; tyrosines were phosphorylated by kinases first). Settings: peptide library: pTyr-Var.
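Also: displayed peptides selected on beads carrying the immobilized SH2 domain, with library peptides lacking any tyrosine serving as negative controls.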

Enrichment score, inactive:
HILFRYPKEFQ [IDS_Y234_P231L] 1.41, KKIMGYSIRTI [IDS_Y490_I485K] 2.38, RKIMGYSIRTI [IDS_Y490_I485R] 1.04, IKIMGSSIRTI [IDS_Y490_Y490S] 1.01, IRTIDYRFTVW [IDS_Y497_YF] 1.01, IALNSCHSRNC [IFNGR1_Y397_Y397C] 1.49, DRTVHYVDEKG [IFT140_Y216_G212R] 0.53, DERQPYVHMNG [IGF1R_Y1346_A1347V] 0.512, GKFFQYDTWKQ [IGF2_Y116] 1.27

The binders below were run against SHP2 C-SH2 domain wild-type in the same assay as above. Settings: peptide library: pTyr-Var.

Enrichment score, inactive:
HILFRYPKEFQ [IDS_Y234_P231L] 0.768, KKIMGYSIRTI [IDS_Y490_I485K] 2.22, RKIMGYSIRTI [IDS_Y490_I485R] 0.765, IKIMGSSIRTI [IDS_Y490_Y490S] 0.861, IRTIDYRFTVW [IDS_Y497_YF] 1.04, IALNSCHSRNC [IFNGR1_Y397_Y397C] 1.22, DRTVHYVDEKG [IFT140_Y216_G212R] 0.599, DERQPYVHMNG [IGF1R_Y1346_A1347V] 0.604, GKFFQYDTWKQ [IGF2_Y116] 0.934

What follows are binders tested against SHP2 N-SH2 domain L43F in the same assay as above. Settings: peptide library: pTyr-Var.

Enrichment score, inactive:
HILFRYPKEFQ [IDS_Y234_P231L] 0.805, KKIMGYSIRTI [IDS_Y490_I485K] 2.2, RKIMGYSIRTI [IDS_Y490_I485R] 0.643, IKIMGSSIRTI [IDS_Y490_Y490S] 0.958, IRTIDYRFTVW [IDS_Y497_YF] 1.09, IALNSCHSRNC [IFNGR1_Y397_Y397C] 1.61, DRTVHYVDEKG [IFT140_Y216_G212R] 0.676, DERQPYVHMNG [IGF1R_Y1346_A1347V] 0.626, GKFFQYDTWKQ [IGF2_Y116] 1.2

Each binder was assayed against SHP2 N-SH2 domain T42A in the same assay as above. Settings: peptide library: pTyr-Var.

Enrichment score, inactive:
HILFRYPKEFQ [IDS_Y234_P231L] 0.914, KKIMGYSIRTI [IDS_Y490_I485K] 2.22, RKIMGYSIRTI [IDS_Y490_I485R] 1, IKIMGSSIRTI [IDS_Y490_Y490S] 0.902, IRTIDYRFTVW [IDS_Y497_YF] 0.989, IALNSCHSRNC [IFNGR1_Y397_Y397C] 1.05, DRTVHYVDEKG [IFT140_Y216_G212R] 0.628, DERQPYVHMNG [IGF1R_Y1346_A1347V] 0.614, GKFFQYDTWKQ [IGF2_Y116] 0.862

What follows are binders tested against SHP2 N-SH2 domain T52S in the same assay as above. Settings: peptide library: pTyr-Var.

Enrichment score, inactive:
HILFRYPKEFQ [IDS_Y234_P231L] 0.703, KKIMGYSIRTI [IDS_Y490_I485K] 2.28, RKIMGYSIRTI [IDS_Y490_I485R] 0.881, IKIMGSSIRTI [IDS_Y490_Y490S] 0.794, IRTIDYRFTVW [IDS_Y497_YF] 0.921, IALNSCHSRNC [IFNGR1_Y397_Y397C] 1.53, DRTVHYVDEKG [IFT140_Y216_G212R] 0.517, DERQPYVHMNG [IGF1R_Y1346_A1347V] 0.604, GKFFQYDTWKQ [IGF2_Y116] 0.858

These binders were tested against SHP2 N-SH2 domain wild-type in the same assay as above. Settings: peptide library: pTyr-Var.

Enrichment score, inactive:
HILFRYPKEFQ [IDS_Y234_P231L] 0.71, KKIMGYSIRTI [IDS_Y490_I485K] 2.13, RKIMGYSIRTI [IDS_Y490_I485R] 0.667, IKIMGSSIRTI [IDS_Y490_Y490S] 0.705, IRTIDYRFTVW [IDS_Y497_YF] 1.15, IALNSCHSRNC [IFNGR1_Y397_Y397C] 1.16, DRTVHYVDEKG [IFT140_Y216_G212R] 0.712, DERQPYVHMNG [IGF1R_Y1346_A1347V] 0.779, GKFFQYDTWKQ [IGF2_Y116] 0.798
